# From the supplement of paper PMC11283458
# Where a name gives a salt, the structure may show the parent alone. The list shows a part of the results. Most values come without repeats; read them as rough.
# Experiments:
# [1] = system: Mef2d microexon dual Nano/Firefly luciferase splicing reporter in Neuro-2a cells; test: B-score of Firefly/Nano luminescence ratio, V1 Mef2d microexon reporter (B-score (plate-normalised)); higher = more Mef2d microexon inclusion; conditions: 24 h
# [2] = system: Mef2d microexon dual Nano/Firefly luciferase splicing reporter in Neuro-2a cells; test: B-score of Nano/Firefly luminescence ratio, V2 Mef2d microexon reporter (B-score (plate-normalised)); higher = more Mef2d microexon inclusion; conditions: 24 h
# 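Wherever B-score of Nano/Firefly luminescence ratio, V2 Mef2d microexon reporter is given: compounds at 4 µM (PKI library 0.5 µM) on Dox-inducible N2A Flp-In cells with PEST-tagged luciferases, 384-well plates, B-score from per-plate median-polish residual over median absolute residual.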
structure (smiles),measurement,setting,value
O=C(Oc1cccc2cccnc12)c1cccc(F)c1 (4 µM),B-score,[1],10.9
same,B-score,[2],4.41
C=CCN(c1ccccc1C1=N/C(=C\c2cccc(C)c2)C(=O)O1)S(=O)(=O)c1ccc(C)cc1 (4 µM),B-score,[1],-1.54
same,B-score,[2],-5
COc1cc(CC(=O)OCC(=O)c2ccc3c(c2)OCCO3)cc(OC)c1OC (4 µM),B-score,[1],-7.95
same,B-score,[2],-10.4
N#C/C(=C\Nc1cc(C(F)(F)F)cc(C(F)(F)F)c1)S(=O)(=O)c1ccccc1 (4 µM),B-score,[1],-4.05
same,B-score,[2],-6.34
CC(C)(C)c1ccc(C(=O)ONC(=O)c2ccc(Cl)c(Cl)c2)cc1 (4 µM),B-score,[1],8.42
same,B-score,[2],2.8
"COC(=O)/C=C/c1cc(O)ccc1O [Methyl 2,5-dihydroxycinnamate] (4 µM)",B-score,[1],-2.6
same,B-score,[2],-8.19
Cc1onc(-c2ccccc2)c1C(=O)ON=C1C2CC3CC(C2)CC1C3 (4 µM),B-score,[1],9.14
same,B-score,[2],1.4
CCN1C(=CC(=S)Nc2ccccc2)Sc2ccccc21 (4 µM),B-score,[1],2.29
same,B-score,[2],4.55
CCOC(=O)c1sc(N)c(C#N)c1COC(=O)c1c(CC)noc1C (4 µM),B-score,[1],-10.3
same,B-score,[2],-5.16
COc1ccc(C(=O)ON=C(N)c2nccnc2Oc2cccc(C(F)(F)F)c2)cc1OC (4 µM),B-score,[1],15
same,B-score,[2],6.73
C=CC[C@@H]1C=C(C)C[C@H](C)C[C@H](OC)[C@H]2O[C@@](O)(C(=O)C(=O)N3CCCC[C@H]3C(=O)O[C@H](/C(C)=C/[C@@H]3CC[C@@H](O)[C@H](OC)C3)[C@H](C)[C@@H](O)CC1=O)[C@H](C)C[C@@H]2OC (4 µM),B-score,[1],4.92
same,B-score,[2],6.57
O=c1onc(-c2c(F)cccc2F)n1-c1ccccc1Cl (4 µM),B-score,[1],-13.2
same,B-score,[2],-0.593
CO[C@H]1O[C@@H]2O[C@@]3(C)CC[C@H]4[C@H](C)CC[C@@H]([C@H]1C)[C@@]24OO3 (4 µM),B-score,[1],18.3
same,B-score,[2],8.32
O=c1c(Cc2ccccc2Cl)c(-c2ccccc2)oc2ccccc12 (4 µM),B-score,[1],2.44
same,B-score,[2],4.36
C[n+]1c(C=Cc2ccc(Cl)c(Cl)c2)ccc2ccccc21 (4 µM),B-score,[1],5.73
same,B-score,[2],3.03
CCOC=NC1=C(C#N)C(c2ccc(Cl)cc2)c2ccc3ccccc3c2O1 (stereo not drawn) (4 µM),B-score,[1],-3.78
same,B-score,[2],-6.74
O=C(Nc1cccc([N+](=O)[O-])c1)C(C(=O)Nc1cccc([N+](=O)[O-])c1)C12CC3CC(CC(C3)C1)C2 (4 µM),B-score,[1],4.13
same,B-score,[2],3.01
O=C(C=Cc1ccc(OC(F)(F)F)cc1)NNC(=O)c1ccc(Cl)cc1 (4 µM),B-score,[1],21.2
same,B-score,[2],1.36
NC(=NOC(=O)Nc1ccc(Cl)cc1)c1ccc(C2SCCS2)cc1 (4 µM),B-score,[1],8.6
same,B-score,[2],0.932
CCOC(=O)c1[nH]c(C)c(C(=O)N2CCc3ccccc32)c1C (4 µM),B-score,[1],-7.72
same,B-score,[2],-10.1
COc1cccc2c1C(=O)c1c(O)c3c(c(O)c1C2=O)C[C@@](O)(C(=O)CO)C[C@@H]3O[C@H]1C[C@H](N)[C@H](O)[C@H](C)O1 (4 µM),B-score,[1],-10.1
same,B-score,[2],-16.4
COc1c(C)c2c(c(O)c1C/C=C(\C)CCC(=O)O)C(=O)OC2 [Mycophenolic acid] (4 µM),B-score,[1],-3.84
same,B-score,[2],-6.55
CCN(CC)C(=S)SSC(=S)N(CC)CC [Tetraethylthiuram disulfide] (4 µM),B-score,[1],4.23
same,B-score,[2],86.5
C=CCn1c(=O)c2cnc(Nc3ccc(N4CCN(C)CC4)cc3)nc2n1-c1cccc(C(C)(C)O)n1 (0.5 µM),B-score,[1],-4.07
same,B-score,[2],-4.63
CCC1CCc2c(sc(N)c2C#N)C1 (stereo not drawn) (4 µM),B-score,[1],-8.99
same,B-score,[2],-0.378
CS(=NS(=O)(=O)c1cccc2nsnc12)c1ncc(C(F)(F)F)cc1Cl (stereo not drawn) (4 µM),B-score,[1],8.8
same,B-score,[2],5.84
Cc1cccc(Nc2cc(Nc3ccc4c(c3)n(C)c(=O)n4C)ncn2)c1 (4 µM),B-score,[1],-6.2
same,B-score,[2],-2.26
Cc1ccn2c(-c3csc(Nc4ccc(N(C)C)cc4)n3)c(C)nc2c1 (4 µM),B-score,[1],-8.23
same,B-score,[2],-10.2
CCOC(=O)c1c(C)[nH]c(C(=O)C(C)N(C)Cc2cccc(OC)c2OC)c1C (stereo not drawn) (4 µM),B-score,[1],-4.39
same,B-score,[2],-2.28
C(=NNc1ccc2ccccc2n1)c1ccccn1 (4 µM),B-score,[1],13.1
same,B-score,[2],2.07
COc1ccc(N/C=C(/C#N)c2nc(-c3ccc(C)cc3C)cs2)cc1 (4 µM),B-score,[1],-12.1
same,B-score,[2],-13
CN(C)c1ccc(-n2nnnc2SCC(=O)c2ccc(F)cc2)cc1 (4 µM),B-score,[1],-7.88
same,B-score,[2],-12.3
"CC(C)n1nc(-c2cc3cc(O)ccc3[nH]2)c2c(N)ncnc21 [Pp242, Torkinib, PP-242] (0.5 µM)",B-score,[1],-8.36
same,B-score,[2],-6.02
O=C(c1ccc(F)cc1)C1CCN(CCCCc2ccccc2)CC1 [4-(4-Fluorobenzoyl)-1-(4-phenylbutyl)-piperidine oxalate] (4 µM),B-score,[1],21.2
same,B-score,[2],7.37
O=C(OCc1ccc(Cl)cc1)c1cnc(Sc2cc(C(F)(F)F)cc(C(F)(F)F)c2)nc1C(F)(F)F (4 µM),B-score,[1],7.1
same,B-score,[2],3.01
O=C1/C(=C/c2ccc(O)c(O)c2)SC(=S)N1C1CCCCC1 (4 µM),B-score,[1],2.53
same,B-score,[2],12
"COc1cc2/c(=N/c3ccc(Br)cc3F)nc[nH]c2cc1OCC1CCN(C)CC1 [Vandetanib, Zactima, ZD6474, AZD-6474] (0.5 µM)",B-score,[1],-4.5
same,B-score,[2],-2.81
Cc1cccc(Nc2nc3nonc3nc2Nc2ccc(F)cc2)c1C (4 µM),B-score,[1],-3.01
same,B-score,[2],-3.1
O=C1Nc2ccccc2/C1=C/c1c[nH]nc1-c1cccs1 (4 µM),B-score,[1],2.73
same,B-score,[2],7.93
CC1=CC(=O)C=C(C)C1=NOC(=O)c1ccccc1Br (4 µM),B-score,[1],-1.42
same,B-score,[2],-1.91
Cc1cccc(N2CCN(C(=O)c3cc(F)cc(F)c3)CC2C)c1 (stereo not drawn) (4 µM),B-score,[1],-3.22
same,B-score,[2],-7
"CS(=O)(=O)N1CCN(Cc2cc3nc(-c4cccc5[nH]ncc45)nc(N4CCOCC4)c3s2)CC1 [GDC-0941, Pictilisib, Pictrelisib, RG-7321] (0.5 µM)",B-score,[1],-4.13
same,B-score,[2],-2.51
COc1ccc(C)cc1Cn1c(-c2nonc2N)nc2ccccc21 (4 µM),B-score,[1],-7.55
same,B-score,[2],-8.98
O=C(NOCC(O)CO)c1cc(Br)c(F)c(F)c1Nc1ccc(I)cc1F (stereo not drawn) (0.5 µM),B-score,[1],4.78
same,B-score,[2],4.43
NC(=NOC(=O)N1CCOCC1)c1cccc(C(F)(F)F)c1 (4 µM),B-score,[1],8.19
same,B-score,[2],3.58
Cn1cnc([N+](=O)[O-])c1Sc1ncnc2nc[nH]c12 (4 µM),B-score,[1],-6.59
same,B-score,[2],-2.47
CNC(=O)c1ccccc1Nc1cc(Nc2ccc(N3CCOCC3)cc2OC)ncc1C(F)(F)F (0.5 µM),B-score,[1],-3.13
same,B-score,[2],-3.65
CCCCOc1ccc(C2CC(=O)C3=C(C2)c2c(ccc4ccccc24)NC3c2ccc(OC)cc2)cc1 (stereo not drawn) (4 µM),B-score,[1],5.27
same,B-score,[2],2.48
CCCN1C/C(=C\c2ccc(F)cc2)C(=O)/C(=C/c2ccc(F)cc2)C1 (4 µM),B-score,[1],-3.41
same,B-score,[2],-8.9
O=c1[nH]c(-c2ccccn2)nc2sc(-c3ccccc3)cc12 (4 µM),B-score,[1],9.9
same,B-score,[2],-17.5
COc1c(Cl)cc(Cl)c(OC)c1C(=O)ON=C(N)c1ccc([N+](=O)[O-])o1 (4 µM),B-score,[1],5.23
same,B-score,[2],3.24
CC(=O)Nc1cccc(-n2c(=O)n(C3CC3)c(=O)c3c(Nc4ccc(I)cc4F)n(C)c(=O)c(C)c32)c1 (0.5 µM),B-score,[1],15.8
same,B-score,[2],19.2
Clc1ccccc1NCn1nnc2ccccc21 (4 µM),B-score,[1],5.27
same,B-score,[2],1.43
COc1ccc(/C(N)=N/OC(=O)c2c(-c3ccccc3Cl)noc2C)cc1OC (4 µM),B-score,[1],4.32
same,B-score,[2],4.47
COC(=O)c1sc(S(C)=O)c2c1CC(C)(C)CC2=O (stereo not drawn) (4 µM),B-score,[1],9.85
same,B-score,[2],9.27
COc1ccccc1/C=C1\C(=O)NC(=O)c2ccccc21 (4 µM),B-score,[1],-3.33
same,B-score,[2],-5.5
COc1ccc2nc(-c3ccccc3)cc(NCCN(C)C)c2c1 (4 µM),B-score,[1],2.19
same,B-score,[2],3.07
C[N+](C)(C)CCC(=O)c1cccc2ccccc12 [2-(alpha-Naphthoyl)ethyltrimethylammonium iodide] (4 µM),B-score,[1],10.2
same,B-score,[2],2.35
O=S(=O)(N/N=C/c1cc(Cl)cc(Cl)c1O)c1ccc(Cl)cc1 (4 µM),B-score,[1],27.6
same,B-score,[2],49.3
Cc1cc(-c2c(C(=O)Sc3ccccc3)c(C)nn2-c2cccc(C(F)(F)F)c2)no1 (4 µM),B-score,[1],6.07
same,B-score,[2],1.09
COc1cc(C(=O)O/N=C(\N)c2ccc(Br)cc2)cc(OC)c1OC (4 µM),B-score,[1],6.77
same,B-score,[2],2.29
CC(C)(C)c1cc(/C=C(\C#N)C(N)=S)cc(C(C)(C)C)c1O [Tyrphostin AG 879] (4 µM),B-score,[1],-7.27
same,B-score,[2],-2.06
O=C(O/N=C(\Nc1ccc(OC(F)(F)F)cc1)c1c(Cl)cccc1Cl)c1ccccc1C(F)(F)F (4 µM),B-score,[1],5.17
same,B-score,[2],5.66
N#Cc1ccc2c(c1)/C(=C\c1ccccc1[N+](=O)[O-])C(=O)N2 (4 µM),B-score,[1],-4.66
same,B-score,[2],-17.2
COc1cccc(OCCCN)c1-c1cc(Nc2cnc(C#N)cn2)n[nH]1 (0.5 µM),B-score,[1],-5.56
same,B-score,[2],-3.3
CCOC(=O)c1c(N2C(=O)C=CC2=O)sc2c1CCCC2 (4 µM),B-score,[1],7.47
same,B-score,[2],1.63
CNC(=O)c1nn(C)c2c1C(C)(C)Cc1cnc(Nc3ccc(N4CCN(C)CC4)cc3)nc1-2 (0.5 µM),B-score,[1],3.88
same,B-score,[2],8.15
O=C(Nc1ccc(Cl)cc1)Oc1ccc(Br)cc1C1SCCS1 (4 µM),B-score,[1],3.17
same,B-score,[2],2.52
O=[N+]([O-])c1ccc(CS(=O)(=O)c2ccc(Cl)cc2)cc1 (4 µM),B-score,[1],-0.179
same,B-score,[2],19.7
COc1ccc(OC)c(C(C)=O)c1OCc1ccccc1 (4 µM),B-score,[1],3.72
same,B-score,[2],2.86
O=C(NCc1ccc(NC(=O)C2CC2)cc1)c1n[nH]c2ccccc12 (4 µM),B-score,[1],-5.85
same,B-score,[2],-4.73
COC(=O)Nc1nc2ccc(SC(C)C)cc2[nH]1 [Methiazole] (4 µM),B-score,[1],-6.58
same,B-score,[2],-31.6
N#CC1=C(Nc2ccccc2Cl)SC(c2c(Cl)cccc2Cl)NC1=O (stereo not drawn) (4 µM),B-score,[1],-2.7
same,B-score,[2],-4.24
CC[C@]1(O)C[C@@H]2CN(CCc3c([nH]c4ccccc34)[C@@](C(=O)OC)(c3cc4c(cc3OC)N(C)[C@H]3[C@@](O)(C(=O)OC)[C@H](OC(C)=O)[C@]5(CC)C=CCN6CC[C@]43[C@@H]65)C2)C1 [Vinblastine sulfate salt] (4 µM),B-score,[1],-2.77
same,B-score,[2],-7.72
